From paper PMC4336329 (PLoS ONE, 2015) come the findings set out here.

About 2,200 (0.71%) of roughly 310,000 compounds showed an effect of 50% or more. The effect is printed as a negative number. The list shows a part of the results.

This assay deals with human ether-à-go-go-related gene (hERG) potassium channel (human, UniProt Q12809). The assay is described as follows: primary screen, population patch clamp on CHO cells stably expressing hERG.
human ether-à-go-go-related gene (hERG) potassium channel, sequence (Q12809 whole entry, looked up): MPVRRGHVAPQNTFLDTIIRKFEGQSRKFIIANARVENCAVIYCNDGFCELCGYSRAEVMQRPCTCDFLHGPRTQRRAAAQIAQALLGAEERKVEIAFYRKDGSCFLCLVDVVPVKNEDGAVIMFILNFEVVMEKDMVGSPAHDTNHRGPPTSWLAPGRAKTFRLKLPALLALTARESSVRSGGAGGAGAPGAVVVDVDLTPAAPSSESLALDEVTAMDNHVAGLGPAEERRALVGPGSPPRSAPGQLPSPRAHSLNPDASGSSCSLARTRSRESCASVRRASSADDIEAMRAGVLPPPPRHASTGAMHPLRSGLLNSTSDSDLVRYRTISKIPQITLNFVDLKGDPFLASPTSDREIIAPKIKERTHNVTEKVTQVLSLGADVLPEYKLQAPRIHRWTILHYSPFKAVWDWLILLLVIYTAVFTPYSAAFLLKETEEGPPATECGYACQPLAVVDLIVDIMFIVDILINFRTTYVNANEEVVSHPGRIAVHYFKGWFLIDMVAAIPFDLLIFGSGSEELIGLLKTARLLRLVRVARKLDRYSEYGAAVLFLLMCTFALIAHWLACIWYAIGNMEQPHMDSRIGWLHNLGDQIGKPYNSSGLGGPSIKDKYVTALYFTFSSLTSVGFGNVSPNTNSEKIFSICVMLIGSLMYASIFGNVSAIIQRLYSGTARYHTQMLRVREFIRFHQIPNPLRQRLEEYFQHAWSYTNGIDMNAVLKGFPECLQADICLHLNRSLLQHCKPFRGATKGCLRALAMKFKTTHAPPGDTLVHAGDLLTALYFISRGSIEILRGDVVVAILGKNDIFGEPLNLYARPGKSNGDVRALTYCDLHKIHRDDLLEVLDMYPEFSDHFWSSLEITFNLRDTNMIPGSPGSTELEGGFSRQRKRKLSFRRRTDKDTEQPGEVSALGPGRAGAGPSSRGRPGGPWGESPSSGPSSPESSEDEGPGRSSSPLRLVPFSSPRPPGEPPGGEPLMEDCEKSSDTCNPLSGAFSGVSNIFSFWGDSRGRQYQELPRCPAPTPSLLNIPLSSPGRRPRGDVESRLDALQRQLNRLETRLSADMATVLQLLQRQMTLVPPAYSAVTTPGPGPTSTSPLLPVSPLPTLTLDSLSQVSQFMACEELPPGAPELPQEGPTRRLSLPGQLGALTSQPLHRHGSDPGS
For `CC(C)(C)c1nc(N2CCN(C(=O)c3ccco3)CC2)c2nnn(Cc3ccccc3)c2n1`, the “hERG current change (%, negative = inhibition) at 1uM” value is given as 13.8%.

As for `O=C(Nc1ccccn1)c1csc2c1CCCC2`, the “hERG current change (%, negative = inhibition) at 1uM” value was 17.4%.

Consider `Cc1ccc(-c2csc(=S)n2CC(=O)OCC(=O)NC(C)C(C)C)cc1` (stereo not drawn), for which the “hERG current change (%, negative = inhibition) at 1uM” value came out at 1.6%.

Turning to `COC(=O)CCCCCCCCC(=O)Nc1nc2ccccc2s1`, the “hERG current change (%, negative = inhibition) at 1uM” value is recorded as 12.6%.

On to `CCOC(=O)CSc1nnc(CNC(=O)c2ccc(OC)c(OC)c2)n1C`, for which the “hERG current change (%, negative = inhibition) at 1uM” value is given as 5.33%.

Consider `CCN(CC(=O)Nc1ccc2c(c1)OC(F)(F)O2)Cc1nc2ccccc2c(=O)[nH]1`, for which the “hERG current change (%, negative = inhibition) at 1uM” value worked out at 0.0926%.

With `O=C1c2cccc(OCC(=O)N3CCCc4ccccc43)c2CCN1Cc1cccnc1`, the “hERG current change (%, negative = inhibition) at 1uM” value is given as 0.823%.

For the compound `CCOc1ccccc1-n1c(=O)c2ccccc2c2ccccc2c1=O`, the “hERG current change (%, negative = inhibition) at 1uM” value worked out at 10.3%.

As to `Cc1cc(C)nc(SC2c3cccc4cccc(c34)C2NS(=O)(=O)c2ccccc2)n1` (stereo not drawn), the “hERG current change (%, negative = inhibition) at 1uM” value is given as 4.57%.

For the compound `COc1cccc(CC(=O)Nc2nc(C)cs2)c1`, the “hERG current change (%, negative = inhibition) at 1uM” value is on record as 0.301%.

As for `CCS(=O)(=O)N1CCN(C(=O)CCC2CCCC2)CC1`, the “hERG current change (%, negative = inhibition) at 1uM” value came out at 1.24%.

As for `COc1ccccc1N/C(N)=N/c1nc(C)cc(C)n1`, the “hERG current change (%, negative = inhibition) at 1uM” value was -2.38%.

Turning to `CCOc1ccc(CCNC(=O)CCNS(=O)(=O)c2ccc(Br)cc2)cc1OCC`, the “hERG current change (%, negative = inhibition) at 1uM” value is given as 7.4%.

Turning to `CCSc1nnc(NC(=O)CCN2C(=O)C3CCCCC3C2=O)s1` (stereo not drawn), the “hERG current change (%, negative = inhibition) at 1uM” value was -0.783%.

In the case of `CC(=O)Nc1cccc(Oc2ncnc3scc(-c4ccc(C)cc4)c23)c1`, the “hERG current change (%, negative = inhibition) at 1uM” value is recorded as 8.55%.

`O=S(=O)(c1ccccc1)c1nc(-c2ccco2)oc1Nc1ccccc1`: the “hERG current change (%, negative = inhibition) at 1uM” value came to 6.9%.

For `COc1ccc(C)cc1S(=O)(=O)NC1CCCCC1`, the “hERG current change (%, negative = inhibition) at 1uM” value is -2.7%.

As to `S=c1nc(-c2ccc(Br)cc2)oc2c1CCCC2`, the “hERG current change (%, negative = inhibition) at 1uM” value is on record as 23.4%.

As to `O=C(COc1cc2oc(=O)cc(-c3ccccc3)c2cc1Cl)NC(Cc1c[nH]c2ccc(O)cc12)C(=O)O` (stereo not drawn), the “hERG current change (%, negative = inhibition) at 1uM” value is reported as 10.7%.

`Cc1ccc2c(c1)cc1c(=O)[nH]ncn12`: the “hERG current change (%, negative = inhibition) at 1uM” value is recorded as 11.5%.

In the case of `CCOC(=O)c1[nH]c2ccccc2c1NC(=O)c1nonc1C`, the “hERG current change (%, negative = inhibition) at 1uM” value is -13.4%.

In the case of `CC(C)[NH+]1CCN(C(=O)c2ccc(NC(=O)c3ccc(Br)o3)cc2)CC1.O=C(O)C(F)(F)F`, the “hERG current change (%, negative = inhibition) at 1uM” value was found to be 4.96%.

For `Cn1c(C(=O)NCCCN2CCOCC2)cc2c(=O)n(C)c3ccccc3c21`, the “hERG current change (%, negative = inhibition) at 1uM” value is reported as 6.12%.

For `COc1ccc(CC(=O)NCC(=O)N/N=C/c2ccc(C)o2)cc1`, the “hERG current change (%, negative = inhibition) at 1uM” value came to 12.4%.

For `O=c1[nH]c(C2CCCCC2)nc2ccccc12`, the “hERG current change (%, negative = inhibition) at 1uM” value is on record as -1.2%.

In the case of `CCC(C)(NC(=O)c1ccc2c(c1)OCO2)C(=O)NC1CCCCC1` (stereo not drawn), the “hERG current change (%, negative = inhibition) at 1uM” value came to 6.99%.

`NC1=NC(=O)/C(=C/c2cccs2)S1`: the “hERG current change (%, negative = inhibition) at 1uM” value stood at 5.11%.

With `CCN(CC)C(=O)CSc1nnc(CCNC(=O)OC(C)(C)C)o1`, the “hERG current change (%, negative = inhibition) at 1uM” value is 4.5%.

As to `Cc1cccc(NC(=S)NCc2ccc3[nH]c4c(c3c2)CCCC4)c1`, the “hERG current change (%, negative = inhibition) at 1uM” value is given as 15.9%.

On to `COc1ccc(N(CC(=O)Nc2ccc(C)cc2C)S(=O)(=O)c2ccccc2[N+](=O)[O-])c(OC)c1`, for which the “hERG current change (%, negative = inhibition) at 1uM” value is given as 0.0301%.

As to `CC1(C)OC(=O)N(c2ccccc2)C12C=Cc1c(ccc3ccccc13)O2` (stereo not drawn), the “hERG current change (%, negative = inhibition) at 1uM” value is reported as 17.4%.

Turning to `O=C(O)c1cccc(-n2nnnc2SCc2ccccc2Cl)c1`, the “hERG current change (%, negative = inhibition) at 1uM” value turned out to be 14.8%.

As to `CCC(C)(C)NC(=O)c1cccc(NC(=O)C(C)C)c1`, the “hERG current change (%, negative = inhibition) at 1uM” value is 13.9%.

Regarding `CC(NC(=O)c1cccc(S(=O)(=O)N2CCc3ccccc3C2)c1)c1ccco1` (stereo not drawn), the “hERG current change (%, negative = inhibition) at 1uM” value was -1.31%.

As for `O=C(CCn1c(=O)[nH]c2ccccc2c1=O)Nc1ccccc1`, the “hERG current change (%, negative = inhibition) at 1uM” value amounted to 17.1%.

Turning to `Cc1cc(F)ccc1S(=O)(=O)Nc1ccccc1C(=O)Nc1ccccc1N1CCOCC1`, the “hERG current change (%, negative = inhibition) at 1uM” value is listed as 9.44%.

Turning to `CNc1ccccc1-c1nc2ccccc2n(C)c1=O`, the “hERG current change (%, negative = inhibition) at 1uM” value is 0.751%.

In the case of `COc1ccc(OCC(=O)Nc2ccc(S(=O)(=O)N3CCOCC3)cc2)cc1`, the “hERG current change (%, negative = inhibition) at 1uM” value was determined as 16.5%.

Consider `CN(Cc1cccnc1)C(=O)CCCc1c[nH]c2ccccc12`, for which the “hERG current change (%, negative = inhibition) at 1uM” value is given as 17%.

As for `O=C(Nc1ccc(S(=O)(=O)N2CCCC2)cc1)c1cc(F)c(F)cc1Cl`, the “hERG current change (%, negative = inhibition) at 1uM” value came to 6.64%.

On to `Cc1ccc(NC(=O)CN2C(=O)NC(C)(C3CC3)C2=O)cc1S(=O)(=O)N1CCCCC1` (stereo not drawn), for which the “hERG current change (%, negative = inhibition) at 1uM” value is 2.21%.

In the case of `CCOCc1[nH]c(=S)[nH]c(=O)c1Cc1ccc(OCC(C)C)cc1`, the “hERG current change (%, negative = inhibition) at 1uM” value was found to be 15.4%.

Turning to `COc1ccc(-n2c(SCC(=O)N3CCOCC3)nnc2C(C)N2CCCCC2)cc1` (stereo not drawn), the “hERG current change (%, negative = inhibition) at 1uM” value stood at 6.21%.

Regarding `Cc1ccc(NC(=O)CN(C)C(=O)c2cc(-c3cccs3)nn2-c2ccccc2)cc1`, the “hERG current change (%, negative = inhibition) at 1uM” value is 4.38%.

As for `CCOc1ccc(C2Nc3ccccc3NC3=C2C(=O)CC(C)(C)C3)cc1OC` (stereo not drawn), the “hERG current change (%, negative = inhibition) at 1uM” value turned out to be 15.2%.

In the case of `Cc1noc(C)c1CCC(=O)N1CCCC(CO)(Cc2ccccc2)C1` (stereo not drawn), the “hERG current change (%, negative = inhibition) at 1uM” value turned out to be 7.75%.

Take `CC(=O)N1c2ccc(S(=O)(=O)N3CCCC(C(=O)N4CCCC(C)C4)C3)cc2CC1C` (stereo not drawn): the “hERG current change (%, negative = inhibition) at 1uM” value turned out to be 25.7%.

`O=C(CNC(=O)c1ccco1)NCC(c1ccco1)N1CCCCC1` (stereo not drawn): the “hERG current change (%, negative = inhibition) at 1uM” value is given as 11.7%.

Regarding `CCN1C(=O)c2cccc3c(S(=O)(=O)N4CCCC4C(=O)O)ccc1c23` (stereo not drawn), the “hERG current change (%, negative = inhibition) at 1uM” value was 9.87%.

For the compound `CN(C)/N=C/c1ccc(N2CCOCC2)cc1`, the “hERG current change (%, negative = inhibition) at 1uM” value is given as -5.23%.

`O=C(CN1CCN(C(=O)C2CCC2)CC1)Nc1ccc(F)cc1`: the “hERG current change (%, negative = inhibition) at 1uM” value is recorded as -27.3%.

`CCCCCCCCN1[C@@H](CC(=O)OCC)c2cc(F)ccc2S1(=O)=O`: the “hERG current change (%, negative = inhibition) at 1uM” value turned out to be 6.55%.

As for `CC(C)(C)NCC(O)Cn1cc(C=O)c2ccccc21` (stereo not drawn), the “hERG current change (%, negative = inhibition) at 1uM” value is 11.4%.

For the compound `Cc1cc(C)n(CCCNC(=O)C2CCC(=O)N(CCc3ccc(Cl)cc3)C2)n1` (stereo not drawn), the “hERG current change (%, negative = inhibition) at 1uM” value is recorded as -5.79%.

As to `Cc1cccc(NC(=O)CSc2cn[nH]n2)c1`, the “hERG current change (%, negative = inhibition) at 1uM” value is reported as 8.25%.

Take `COC(=O)c1ccc(N=NNc2ccc(C(=O)OC)cc2)cc1`: the “hERG current change (%, negative = inhibition) at 1uM” value is reported as 17.5%.

For the compound `COc1cccc(C(C)NC(=O)Nc2cc(Cl)ccc2OC)c1` (stereo not drawn), the “hERG current change (%, negative = inhibition) at 1uM” value came out at 13.5%.
